Experimental data reported in the supplement of paper PMC11417369.
± gives the standard deviation of the averaged measurements. Some of the results follow.

tested on: PfAP2-G AP2 domain (GST-tagged); assay: gcPBM binding intensity (ln(normalized median fluorescence intensity)); higher = stronger DNA binding
How it was run: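 In this array assay, P. falciparum DNA-binding domains with a GST tag, expressed in E. coli, were applied for 1 h to primer-extended double-stranded 36-bp intergenic genomic probes and negative controls on an Agilent 4 × 180k array. Bound protein was visualised with Alexa488 anti-GST antibody at 488 nm. Binding intensity is the highest Masliner-normalised natural-log median intensity across replicate spots of either probe orientation.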

Sequence | gcPBM binding intensity (ln)
ATTTATAAATCAAAGTGTACATATGTTTTATTTTTT [XGTACX_site804] | 11.4 ± 0.6
AGAGAGAACGGTATAACATGCAATAAATTTCAGAAG [TGCATGCA_site423] | 9.62 ± 0.19
TTTTTTTAATAAAAGTGTACCAAATTATATACACAT [XGTACX_site6811] | 11.1 ± 0.64
TTTTATAAATATTTTTGTACACATTTAAATATTATT [XGTACX_site4973] | 11.3 ± 0.59
TTTTCATATATTTATTGTACATATTACATATATAAT [XGTACX_site2425] | 11.1 ± 0.61
TTCTTTTTAAATATACTAATTATGTATAAAACAGAA [GTGCAC_negctrl_site131] | 9.94 ± 0.23
ATGTATGTAATAAAAAGTACATATGTTCATAATAAA [XGTACX_site842] | 11.4 ± 0.57
TTTTATTATATGGAGGTGCATATATAATAATATAAT [GTGCAC_site9477] | 9.9 ± 0.16
ATCGGTAATATTAACACACACATTTATTTATATTTA [CACACA_site6638] | 10.03 ± 0.092
TGGAACGTAATAAAATGTACATACGTTTTTCATATG [XGTACX_site6229] | 11.1 ± 0.63
TTTTTTTTTCCTTCTTGTACATATTATATATACATA [XGTACX_site5988] | 11 ± 0.55
TTCACATATATATAACGTACATTATTATTATTCTGA [XGTACX_site6006] | 11.1 ± 0.71
AACACATACATATATGCACACATTTTATTCCATTAT [CACACA_site2834] | 10.125 ± 0.007
TTTTTTTTTTTTTGTACATGCAAATATTATGAACAC [TGCATGCA_site571] | 11.1 ± 0.86
GACAAATTAATCGATTGTACACAATTTGTTTCGTTG [XGTACX_site35] | 11.3 ± 0.9
TCTTATTTAATTAAACAAAAGAAAAAGAAAGAAAAG [CACACA_negctrl_site1569] | 10 ± 0.19
TACAAGTATAAATAAGCACACATGTGTATATGTACA [CACACA_site7911] | 10.6 ± 0.23
TTAGAAGGGATTAAAGTGCAAAATAGGATTAGAGTA | 9.98 ± 0.014
GATCTTTTTTTTCTTACTTTACAATTTTTTTTTTAC [XGTACX_negctrl_site101] | 9.995 ± 0.035

Sequence | gcPBM binding intensity (ln)
TTTTTTTTTTTCATGTGTACATATATTTTCACTTTA [XGTACX_site4475] | 11.4 ± 0.82
AAGAAAAAGAATAGACGGACAACTAATATAAAATAT [XGTACX_site7905] | 11.2 ± 0.63
TTTATTTCTATATTTACATGCAAAGGGTTAGTTATA [TGCATGCA_site983] | 9.97 ± 0.099
TATCATCATGTATGTACACACATACCTATATTATGT [CACACA_site6768] | 11.3 ± 0.79
GTTTTACACAGACATGCATGTGAAAATTTGATGGTA [TGCATGCA_site308] | 9.92 ± 0.099
TGTATAAAACATGGGTGTACTGAACTCAATCATATA [XGTACX_site1215] | 11.3 ± 0.64
GATTTTCTAATTTCTACACACATATAAGAATATTCA [CACACA_site7340] | 10 ± 0.099
TTTTTAATTCAAACAATAATATGTTATATTTCAAAT [TGCATGCA_negctrl_site27] | 9.715 ± 0.035
AAAAGTAACAAAGCTACACACATTTAAATAAACATA [CACACA_site1421] | 9.945 ± 0.092
AAAATAACAAAATAAAGTACTTTTAAAAGATATAAT [XGTACX_site7632] | 11 ± 0.59
AAAATAAAAAAGTGTACACATATTAAAATGTATTTA [CACACA_site4424] | 11.6 ± 0.88
GAAAAGAAAAATAAACGTACATAAATATTAACATTA [XGTACX_site8213] | 11.4 ± 0.98
CAAATAAAAATAAGGAGTACAATTAAAAAAGGAAGG [XGTACX_site4366] | 11.6 ± 0.91
TATTAGCATGTTATTACACACAATATAAAATATATA [CACACA_site1401] | 9.76 ± 0.071
TAAAATTATATAAAGGAACACACATTTTATTTTATT [CACACA_site8423] | 9.925 ± 0.007
TCATTGTTAAGCTGAAGTACTTATAATTACATCGAG [XGTACX_site6340] | 11.2 ± 0.76
AATATATTTTAATATACACACATATCTGCTCTTTAA [CACACA_site6130] | 9.765 ± 0.021
CATGTATGTACCATGGTGCAACAATATTTTTAACAA [GTGCAC_site9597] | 11 ± 0.64
AATTAAATTACTTATACACACATAAAATGTCTGTAT [CACACA_site997] | 10.01 ± 0.092

Sequence | gcPBM binding intensity (ln)
AAATTATGAACATATTGTACATATATATATATATAT [XGTACX_site8269] | 10.8 ± 0.48
ATTATATAAATTATATGTACGTATTTTTTTTTTTTT [XGTACX_site1908] | 11.5 ± 0.83
TGTTTTTAAATTTAAATCAAAAAATAAAATAAAATA [GTGCAC_negctrl_site355] | 9.96 ± 0.22
ATAATTATATATATATGTACATATTATATATATATA [XGTACX_site4526] | 11.2 ± 0.77
CATAAATACATACATACACACATATTTATATTTATA [CACACA_site7071] | 9.95 ± 0.057
AAAAGAAAAATGTCATATGATATCATATATTTTATA [GTGCAC_negctrl_site185] | 9.66 ± 0.028
AAAAATATGTGATAATGTACTTTTCATTTTTATTTT [XGTACX_site8544] | 11 ± 0.6
AAGATAACAAGTAATCAATCTAATTATTAATTATAT [CACACA_negctrl_site1713] | 9.41 ± 0.2
ATATATTTAAATAAATGTACAAATCATAAATTCAAG [XGTACX_site1417] | 10.8 ± 0.56
AATATAATATAATGCACACATAAACAAAAAAAAAAT [CACACA_site1304] | 10.1 ± 0.35
TTCATTTGAAAACTGTGTACTTAAAAATATACATAT [XGTACX_site176] | 11.4 ± 0.91
TATATATATTGTGTATGTACATATATATAAATATTG [XGTACX_site433] | 11.2 ± 0.69
TTTTTATTTTATAATATATTCCTTTTCCTTTCTTTC [CACACA_negctrl_site245] | 9.62 ± 0.11
TACATATATATAAATACACACACACCCACCTTATAA [CACACA_site9346] | 10.5 ± 0.39
TTATTAGAAAAATGCACACCAAAAAAAAAAAAAAAA [CACACA_site2522] | 10 ± 0.57
ATACATATACACATATGTACATATGAAAAGAAAAAT [XGTACX_site6445] | 11.1 ± 0.64
AAATTTATTATGAACATACACACAAAAAAAAAAAGT [CACACA_site2053] | 10.4 ± 0.35
CTATATGTATAAAGTTGTACAGTTTTTCAAAGTTAA [XGTACX_site6652] | 11.5 ± 0.93
